Patent US20140088192A1, “SUBCUTANEOUSLY INFUSIBLE LEVODOPA PRODRUG COMPOSITIONS AND METHODS OF INFUSION” (SynAgile Corporation, priority 2010, published 2014)

Assays:
[1] = Hydrolysis of LDEE salts to LD in aqueous solution, monitored by HPLC; format: physicochemical; conditions: for % LDEE•HCl hydrolyzed: pH 3.0, about 4° C.; for percentage of LDEE.HCl hydrolyzed per hour: citrate
juvenile minipigs = assay: Subcutaneous infusion in minipigs, symptoms at infusion site; format: in vivo, minipig; conditions: s.c. shoulder
Description: Citrate buffered LDEE.HCl solutions having a pH of 4.5-5.0 were infused into the shoulders of juvenile minipigs weighing about 10 kgs.
Citrate buffered LDEE.HCl solutions having a pH of 4.5-5.0 were infused into the neck/shoulder regions of juvenile minipigs weighing about 10 kgs. Two minipigs were treated. On each minipig, the solutions were simultaneously infused at two infusion sites, one on the left neck/shoulder and one on the right neck/shoulder. […] The dose was split equally between the two infusion sites, with each infusion site receiving 571 mg LDEE in 2.62 mL over 16 hours.

CCOC(=O)[C@@H](N)Cc1ccc(O)c(O)c1.Cl [LDEE.HCl, LDEE Hydrochloride]
% of the LDEE.HCl hydrolyzed daily (used for projection) ([1]; 2.7 M, pH 2.3, ambient temperature): about 0.024%
% of LDEE•HCl hydrolyzed to LD ([1]; about 2.1 M, pH 5, about 4° C., 1 day): 0.19%
% of LDEE•HCl hydrolyzed to LD ([1]; about 2.1 M, pH 5, about 4° C., 4 days): 0.72%
% of LDEE•HCl hydrolyzed to LD ([1]; about 2.1 M, pH 5, about 4° C., 8 days): 0.97%
% of LDEE•HCl hydrolyzed to LD ([1]; about 2.1 M, pH 5, about 4° C., 12 days): 1.24%
% of LDEE•HCl hydrolyzed to LD ([1]; about 2.1 M, pH 5, about 4° C., 15 days): 1.42%
% of LDEE•HCl hydrolyzed to LD ([1]; about 2.4 M, pH about 4.0, about 4° C., 0 weeks): 0.16%
% of LDEE•HCl hydrolyzed to LD ([1]; about 2.4 M, pH about 4.0, about 4° C., 3 weeks): 0.39%
% of LDEE•HCl hydrolyzed to LD ([1]; about 2.4 M, pH about 4.0, about 4° C., 7 weeks): 0.76%
% of LDEE•HCl hydrolyzed to LD ([1]; about 2.4 M, pH about 4.0, about 4° C., 11 weeks): 1.02%
% of LDEE•HCl hydrolyzed to LD ([1]; about 2.4 M, pH about 4.0, about 4° C., 15 weeks): 1.22%
% of LDEE•HCl hydrolyzed to LD ([1]; about 2.4 M, pH about 4.0, about 4° C., 21 weeks): 1.50%
LD concentration ([1]; about 2.5 M LDEE.HCl, pH 2.3, about 4° C., after 21 weeks): 11.7 mM
change of LD concentration ([1]; about 2.5 M LDEE.HCl, pH 2.3, about 4° C., over 21 weeks): 7.4 mM
LD concentration ([1]; about 2.5 M LDEE.HCl, pH 2.3, about 4° C., start): 4.3 mM
% hydrolyzed per day ([1]; about 2.5 M, acetate buffered pH 4.60, about 23±2° C.): 0.82%
% of the LDEE.HCl converted daily to LD ([1]; about 2.5 M, pH 0.12, 23° C.): about 0.71%
% of the LDEE.HCl hydrolyzed ([1]; about 2.5 M, pH 0.12, 6 days at 23° C.): about 4.3%
LD concentration as % of that of the LDEE.HCl ([1]; about 2.5 M, pH 2.3, about 4° C., after 21 weeks): 0.47%
LD concentration as % of that of the LDEE.HCl ([1]; about 2.5 M, pH 2.3, about 4° C., start): 0.17%
% LDEE•HCl hydrolyzed ([1]; about 2.5 M, 0 weeks): 0.15%
% LDEE•HCl hydrolyzed ([1]; about 2.5 M, 3 weeks): 0.23%
% LDEE•HCl hydrolyzed ([1]; about 2.5 M, 7 weeks): 0.31%
% LDEE•HCl hydrolyzed ([1]; about 2.5 M, 11 weeks): 0.37%
% LDEE•HCl hydrolyzed ([1]; about 2.5 M, 15 weeks): 0.43%
% LDEE•HCl hydrolyzed ([1]; about 2.5 M, 19 weeks): 0.49%
% LDEE•HCl hydrolyzed ([1]; about 2.5 M, 21 weeks): 0.51%
% of the LDEE hydrolyzed to LD ([1]; about 2.6 M LDEE.HCl, pH 3.3 citrate, 6 days at 23±2° C.): 1.8%
LD detected by HPLC-UV-vis assay ([1]; about 2.6 M, pH 2.1, 24 h at 23±2° C.): did not detect LD
% of the LDEE.HCl hydrolyzed daily ([1]; about 2.6 M, pH 3.3 citrate, 23±2° C.): about 0.30%
% of the LDEE.HCl hydrolyzed daily to LD ([1]; about 2.7 M, pH 2.3, 22.6±1.0° C., 8 day period following Day 1): about 0.026%
% of LDEE•HCl hydrolyzed to LD ([1]; about 2.7 M, pH 2.3, 22.6±1.0° C., elapsed 1 day): 0.18%
% of LDEE•HCl hydrolyzed to LD ([1]; about 2.7 M, pH 2.3, 22.6±1.0° C., elapsed 2 days): 0.18%
% of LDEE•HCl hydrolyzed to LD ([1]; about 2.7 M, pH 2.3, 22.6±1.0° C., elapsed 5 days): 0.27%
% of LDEE•HCl hydrolyzed to LD ([1]; about 2.7 M, pH 2.3, 22.6±1.0° C., elapsed 6 days): 0.32%
% of LDEE•HCl hydrolyzed to LD ([1]; about 2.7 M, pH 2.3, 22.6±1.0° C., elapsed 7 days): 0.32%
% of LDEE•HCl hydrolyzed to LD ([1]; about 2.7 M, pH 2.3, 22.6±1.0° C., elapsed 8 days): 0.36%
% of LDEE•HCl hydrolyzed to LD ([1]; about 2.7 M, pH 2.3, 22.6±1.0° C., elapsed 9 days): 0.38%
percentage of LDEE.HCl hydrolyzed per hour ([1]; pH 2.3, 4° C., about 2.5 M): 0.0000 % per hour
percentage of LDEE.HCl hydrolyzed per hour ([1]; pH 2.3, 37° C., about 2.5 M): 0.004 % per hour
% of the LDEE.HCl hydrolyzed per hour ([1]; pH 2.3, 55° C.): 1.9%
percentage of LDEE.HCl hydrolyzed per hour ([1]; pH 2.3, 55° C., about 2.5 M): 0.019 % per hour
percentage of LDEE.HCl hydrolyzed per hour ([1]; pH 3.0, 4° C., about 2.5 M): 0.0001 % per hour
percentage of LDEE.HCl hydrolyzed per hour ([1]; pH 3.0, 37° C., about 2.5 M): 0.003 % per hour
percentage of LDEE.HCl hydrolyzed per hour ([1]; pH 3.0, 55° C., about 2.5 M): 0.02 % per hour
percentage of LDEE.HCl hydrolyzed per hour ([1]; pH 4.0, 4° C., about 2.5 M): 0.0005 % per hour
percentage of LDEE.HCl hydrolyzed per hour ([1]; pH 4.0, 37° C., about 2.5 M): 0.014 % per hour
percentage of LDEE.HCl hydrolyzed per hour ([1]; pH 4.0, 55° C., about 2.5 M): 0.027 % per hour
daily hydrolysis rate as fraction of that of the acetate salt of Example 6 ([1]; pH 4.6-4.7, about 23° C.): about ⅕
percentage of LDEE.HCl hydrolyzed per hour ([1]; pH 5.0, 4° C., about 2.1 M): 0.0029 % per hour
Symptoms at end of infusion (juvenile minipigs; Mini Pig A, Exper. # 1, 608 mg/mL, total dose 163 mg (LDEE based), 16 hrs, pH 4.5-5.0): None
Symptoms at end of infusion (juvenile minipigs; Mini Pig A, Exper. # 2, 214 mg/mL, total dose 489 mg, 16 hrs): none
Symptoms at end of infusion (juvenile minipigs; Mini Pig A, Exper. # 3, 214 mg/mL, total dose 1142 mg, 16 hrs): diffuse soft
Symptoms at end of infusion (juvenile minipigs; Mini Pig A, Exper. # 4, 108 mg/mL, total dose 1142 mg, 16.5 hrs): none
Symptoms at end of infusion (juvenile minipigs; Mini Pig B, Exper. # 1, 608 mg/mL, total dose 163 mg (LDEE based), 16 hrs, pH 4.5-5.0): small hard
Symptoms at end of infusion (juvenile minipigs; Mini Pig B, Exper. # 2, 214 mg/mL, total dose 489 mg, 16 hrs): none
Symptoms at end of infusion (juvenile minipigs; Mini Pig B, Exper. # 3, 214 mg/mL, total dose 1142 mg, 16 hrs): diffuse soft
Symptoms at end of infusion (juvenile minipigs; Mini Pig B, Exper. # 4, 108 mg/mL, total dose 1142 mg, 16.5 hrs): none
